Results as given in the supplement of paper PMC4967469.
pIC50: −log10 of the molar value. By IC50 is meant the dose at which the fit gives 50% viability; where the fit passes the top or lowest dose, that dose stands as a limit. The AUC spans the tested range (256-fold, ending at the top dose) of the same fit; the more sensitive the line, the further below 1. Where the top dose is marked as inferred, it comes from the curve model; the source does not state it. For part of these data: Where an entry number is given, a second screen of the drug exists; the two often differ.

Legend:
Assay in all cases: Viability of human cancer cell lines after 72 h of drug (GDSC screen)
BMN-673 = compound: Cn1ncnc1[C@H]1c2n[nH]c(=O)c3cc(F)cc(c23)N[C@@H]1c1ccc(F)cc1 [BMN-673]; conditions: top dose 10 µM; top dose inferred
Protocol: (§1)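 Human cancer cell lines in 384-well plates, medium with 10% serum, drug for 72 h over a 256-fold dose range (nine 2-fold or five 4-fold steps up to the top dose). Adherent lines were fixed and stained with the nucleic acid dye Syto60, suspension lines read with resazurin; signal relative to control wells, capped at 0 and 100%. One two-parameter sigmoid per drug and line, fitted in a mixed model over all curves with the slope shared within a line.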

AZD6482 = compound: Cc1cc([C@@H](C)Nc2ccccc2C(=O)O)c2nc(N3CCOCC3)cc(=O)n2c1 [AZD6482]
Protocol: as §1

MLN4924 = compound: NS(=O)(=O)OC[C@@H]1C[C@@H](n2ccc3c(N[C@H]4CCc5ccccc54)ncnc32)C[C@@H]1O [MLN4924]; conditions: top dose 1 µM; top dose inferred
Protocol: as §1

XMD11-85h = compound: COc1cc(C(=O)NC2CCN(C)CC2)ccc1Nc1ncc2c(n1)N(C1CCCC1)CCC(=O)N2C(C)C [XMD11-85h]; conditions: top dose 10 µM; top dose inferred
Protocol: as §1

[1] = top dose 5 µM, screen: GDSC drug entry 1066, top dose inferred
[2] = top dose 5.12 µM, screen: GDSC drug entry 156

Cell Line | AUC (BMN-673) | pIC50 (BMN-673) | AUC (AZD6482; [1]) | pIC50 (AZD6482; [1]) | AUC (AZD6482; [2]) | pIC50 (AZD6482; [2]) | AUC (MLN4924) | pIC50 (MLN4924) | AUC (XMD11-85h) | pIC50 (XMD11-85h)
IA-LM (large cell lung carcinoma, adherent) | 0.93 | < 5.00 | 0.921 | < 5.30 | 0.962 | < 5.29 | 0.941 | < 6.00 | 0.962 | < 5.00
IHH-4 (thyroid, semi-adherent) | 0.094 | 7.35 | 0.942 | < 5.30 | 0.878 | 5.46 | 0.583 | 7.00 | 0.965 | < 5.00
IST-MEL1 (melanoma, adherent) | 0.48 | 6.26 | 0.734 | 5.77 | 0.669 | 5.98 | 0.614 | 6.86 | 0.954 | < 5.00
IST-SL2 (small cell lung carcinoma, suspension) | 0.962 | < 5.00 | 0.952 | < 5.30 | 0.9 | < 5.29 | 0.943 | < 6.00 | 0.987 | < 5.00
JHOS-3 (ovary, adherent) | 0.897 | < 5.00 | 0.93 | < 5.30 |  |  | 0.969 | < 6.00 | 0.93 | < 5.00
JHU-022 (head and neck, adherent) | 0.837 | 5.03 | 0.914 | < 5.30 | 0.89 | < 5.29 | 0.692 | 6.60 | 0.933 | < 5.00
JHU-029 (head and neck, adherent) | 0.726 | 5.49 | 0.975 | < 5.30 |  |  | 0.792 | 6.24 | 0.934 | < 5.00
JJN-3 (haematopoietic neoplasm, suspension) | 0.981 | < 5.00 | 0.986 | < 5.30 | 0.97 | < 5.29 | 0.896 | 6.08 | 0.91 | 5.01
JURL-MK1 (chronic myeloid leukaemia, suspension) | 0.683 | 5.69 | 0.959 | < 5.30 | 0.987 | < 5.29 | 0.813 | 6.27 | 0.973 | < 5.00
K2 (melanoma, adherent) | 0.879 | < 5.00 | 0.974 | < 5.30 | 0.885 | < 5.29 | 0.817 | 6.10 | 0.927 | < 5.00
KCL-22 (chronic myeloid leukaemia, suspension) | 0.952 | < 5.00 | 0.99 | < 5.30 | 0.991 | < 5.29 | 0.822 | 6.33 | 0.969 | < 5.00
KELLY (neuroblastoma, adherent) | 0.414 | 6.43 | 0.974 | < 5.30 | 0.966 | < 5.29 | 0.699 | 6.67 | 0.983 | < 5.00
KGN (ovary, adherent) | 0.638 | 5.79 | 0.973 | < 5.30 | 0.746 | 5.71 | 0.885 | < 6.00 | 0.955 | < 5.00
KINGS-1 (glioma, adherent) | 0.898 | < 5.00 | 0.837 | < 5.30 | 0.818 | 5.36 | 0.908 | < 6.00 | 0.97 | < 5.00
KMH-2 (thyroid, adherent) | 0.646 | 5.82 | 0.945 | < 5.30 | 0.969 | < 5.29 | 0.858 | 6.17 | 0.963 | < 5.00
KNS-42 (glioma, adherent) | 0.923 | < 5.00 | 0.936 | < 5.30 | 0.799 | 5.52 | 0.959 | < 6.00 | 0.935 | < 5.00
KYAE-1 (oesophagus, suspension) | 0.98 | < 5.00 | 0.917 | < 5.30 |  |  | 0.983 | < 6.00 | 0.9 | < 5.00
KYSE-50 (oesophagus, adherent) | 0.92 | < 5.00 | 0.847 | 5.49 | 0.941 | < 5.29 | 0.923 | < 6.00 | 0.975 | < 5.00
KYSE-450 (oesophagus, adherent) | 0.937 | < 5.00 |  |  | 0.925 | < 5.29 | 0.74 | 6.54 | 0.968 | < 5.00
LAN-6 (neuroblastoma, adherent) | 0.91 | < 5.00 | 0.947 | < 5.30 | 0.969 | < 5.29 | 0.971 | < 6.00 | 0.955 | < 5.00
LB373-MEL-D (melanoma, adherent) | 0.961 | < 5.00 | 0.973 | < 5.30 |  |  | 0.959 | < 6.00 | 0.982 | < 5.00

Cell Line | AUC (BMN-673) | pIC50 (BMN-673) | AUC (AZD6482; [1]) | pIC50 (AZD6482; [1]) | AUC (AZD6482; [2]) | pIC50 (AZD6482; [2]) | AUC (MLN4924) | pIC50 (MLN4924) | AUC (XMD11-85h) | pIC50 (XMD11-85h)
LB2241-RCC (kidney, adherent) | 0.649 | 5.77 | 0.685 | 5.95 | 0.905 | < 5.29 | 0.68 | 6.67 | 0.922 | < 5.00
LB2518-MEL (melanoma, adherent) | 0.802 | 5.28 | 0.981 | < 5.30 | 0.962 | < 5.29 | 0.918 | < 6.00 | 0.979 | < 5.00
LK-2 (lung squamous cell carcinoma, adherent) | 0.561 | 6.04 | 0.969 | < 5.30 | 0.988 | < 5.29 | 0.712 | 6.62 | 0.97 | < 5.00
LOU-NH91 (lung squamous cell carcinoma, adherent) | 0.917 | < 5.00 | 0.963 | < 5.30 | 0.914 | < 5.29 | 0.806 | 6.25 | 0.972 | < 5.00
LOXIMVI (melanoma, semi-adherent) | 0.554 | 6.06 |  |  | 0.958 | < 5.29 | 0.642 | 6.83 | 0.919 | < 5.00
LP-1 (myeloma, suspension) | 0.993 | < 5.00 | 0.99 | < 5.30 | 0.949 | < 5.29 | 0.973 | < 6.00 | 0.993 | < 5.00
LS-123 (large intestine, adherent) | 0.952 | < 5.00 | 0.908 | < 5.30 | 0.979 | < 5.29 | 0.953 | < 6.00 | 0.951 | < 5.00
LS-180 (large intestine, adherent) | 0.865 | < 5.00 | 0.985 | < 5.30 | 0.769 | 5.66 | 0.846 | 6.05 | 0.976 | < 5.00
LS-513 (large intestine, adherent) | 0.975 | < 5.00 | 0.977 | < 5.30 | 0.985 | < 5.29 | 0.939 | < 6.00 | 0.986 | < 5.00
LS-1034 (large intestine, adherent) | 0.945 | < 5.00 | 0.986 | < 5.30 | 0.985 | < 5.29 | 0.985 | < 6.00 | 0.968 | < 5.00
LU-65 (large cell lung carcinoma, suspension) | 0.974 | < 5.00 | 0.987 | < 5.30 | 0.983 | < 5.29 | 0.958 | < 6.00 | 0.966 | < 5.00
MDA-MB-175-VII (breast, adherent) | 0.948 | < 5.00 | 0.854 | 5.34 | 0.901 | < 5.29 | 0.958 | < 6.00 | 0.986 | < 5.00
MDA-MB-330 (breast, adherent) | 0.883 | < 5.00 |  |  | 0.852 | 5.32 | 0.892 | < 6.00 | 0.982 | < 5.00
MFE-296 (endometrium, adherent) | 0.636 | 5.82 | 0.943 | < 5.30 | 0.731 | 5.81 | 0.68 | 6.68 | 0.948 | < 5.00
MFE-319 (endometrium, adherent) | 0.943 | < 5.00 | 0.901 | < 5.30 | 0.923 | < 5.29 | 0.987 | < 6.00 | 0.965 | < 5.00
MFM-223 (breast, adherent) | 0.98 | < 5.00 | 0.86 | 5.39 | 0.989 | < 5.29 | 0.812 | 6.28 | 0.987 | < 5.00
MHH-ES-1 (Ewing sarcoma, adherent) | 0.074 | > 7.41 | 0.923 | < 5.30 | 0.959 | < 5.29 | 0.607 | 6.91 | 0.914 | < 5.00
MKN7 (stomach, adherent) | 0.931 | < 5.00 | 0.867 | < 5.30 |  |  | 0.971 | < 6.00 | 0.981 | < 5.00
MMAC-SF (melanoma, adherent) | 0.947 | < 5.00 |  |  | 0.885 | < 5.29 | 0.879 | < 6.00 | 0.97 | < 5.00
MOG-G-CCM (glioma, adherent) | 0.85 | 5.02 | 0.865 | < 5.30 | 0.772 | 5.64 | 0.869 | < 6.00 | 0.935 | < 5.00
MOG-G-UVW (glioma, adherent) | 0.468 | 6.29 | 0.922 | < 5.30 | 0.943 | < 5.29 | 0.613 | 6.90 | 0.962 | < 5.00
